Assay results: paper PMC5303829, “A CAF40-binding motif facilitates recruitment of the CCR4-NOT complex to mRNAs targeted by Drosophila Roquin” (Nature Communications, 2017)
Results are given in words; binding and its absence hold for the method and conditions named. For some of these results: In cells and extracts the contact can be indirect. Some binding calls cover weakened binding; strength is not graded here. For some of these results: Sequences can lack the tags named with a protein. Blank lines part the entries; values can stand above or below the molecule they belong to.

By UniProt entry, the sequences of proteins in these tests, tags left out. Where a name states a change or a piece, a line headed by the entry shows the natural chain unless it says otherwise. Chains listed by the source or under a name are the forms on record and can include a tag or linker. Residues count along the entry.
UniProt A5YKK6, residues 1093-2371: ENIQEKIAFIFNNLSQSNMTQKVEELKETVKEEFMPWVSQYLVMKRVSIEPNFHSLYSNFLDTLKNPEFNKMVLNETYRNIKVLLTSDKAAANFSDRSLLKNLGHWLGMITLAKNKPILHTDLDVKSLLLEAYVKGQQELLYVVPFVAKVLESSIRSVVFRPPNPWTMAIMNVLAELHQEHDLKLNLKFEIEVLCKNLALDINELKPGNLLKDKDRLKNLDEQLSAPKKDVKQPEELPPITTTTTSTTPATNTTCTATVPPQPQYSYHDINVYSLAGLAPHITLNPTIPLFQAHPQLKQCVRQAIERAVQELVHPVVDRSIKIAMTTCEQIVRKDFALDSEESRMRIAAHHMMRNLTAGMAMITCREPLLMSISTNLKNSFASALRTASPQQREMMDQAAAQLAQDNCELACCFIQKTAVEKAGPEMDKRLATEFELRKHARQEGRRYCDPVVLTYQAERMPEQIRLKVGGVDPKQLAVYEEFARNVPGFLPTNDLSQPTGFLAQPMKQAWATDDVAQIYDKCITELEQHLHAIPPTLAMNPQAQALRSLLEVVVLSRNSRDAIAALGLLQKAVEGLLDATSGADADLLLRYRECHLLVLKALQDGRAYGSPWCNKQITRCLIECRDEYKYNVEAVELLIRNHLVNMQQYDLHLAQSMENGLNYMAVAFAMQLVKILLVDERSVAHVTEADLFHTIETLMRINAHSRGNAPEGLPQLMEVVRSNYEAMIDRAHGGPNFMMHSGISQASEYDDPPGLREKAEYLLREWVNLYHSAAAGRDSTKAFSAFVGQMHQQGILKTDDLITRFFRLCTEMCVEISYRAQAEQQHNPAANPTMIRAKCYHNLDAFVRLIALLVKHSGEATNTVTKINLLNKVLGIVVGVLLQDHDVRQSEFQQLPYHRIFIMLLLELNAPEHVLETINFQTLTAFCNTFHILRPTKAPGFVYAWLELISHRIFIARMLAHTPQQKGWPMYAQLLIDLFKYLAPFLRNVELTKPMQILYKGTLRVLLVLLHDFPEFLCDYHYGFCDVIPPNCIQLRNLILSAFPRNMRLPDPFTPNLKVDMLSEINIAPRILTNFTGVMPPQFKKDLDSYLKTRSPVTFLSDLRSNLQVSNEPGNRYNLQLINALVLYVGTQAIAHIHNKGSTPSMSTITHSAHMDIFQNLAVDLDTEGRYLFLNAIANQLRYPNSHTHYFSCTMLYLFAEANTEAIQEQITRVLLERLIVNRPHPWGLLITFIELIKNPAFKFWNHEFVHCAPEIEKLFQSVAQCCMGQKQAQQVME
UniProt O75175, residues 607-748: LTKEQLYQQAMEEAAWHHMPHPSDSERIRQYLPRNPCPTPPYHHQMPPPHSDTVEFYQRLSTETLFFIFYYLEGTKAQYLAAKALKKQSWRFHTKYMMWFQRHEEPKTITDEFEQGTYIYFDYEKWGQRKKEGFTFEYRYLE
Hs CAF40 ARM domain Y134D, G141W (Q92600, form named): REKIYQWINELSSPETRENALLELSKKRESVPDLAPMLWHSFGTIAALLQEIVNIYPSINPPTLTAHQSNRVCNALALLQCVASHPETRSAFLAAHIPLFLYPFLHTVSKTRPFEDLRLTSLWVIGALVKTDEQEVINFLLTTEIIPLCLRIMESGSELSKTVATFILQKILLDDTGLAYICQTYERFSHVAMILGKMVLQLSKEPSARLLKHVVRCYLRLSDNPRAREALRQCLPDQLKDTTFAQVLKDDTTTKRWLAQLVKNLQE
Hs CAF40 ARM domain V181E (Q92600, form named): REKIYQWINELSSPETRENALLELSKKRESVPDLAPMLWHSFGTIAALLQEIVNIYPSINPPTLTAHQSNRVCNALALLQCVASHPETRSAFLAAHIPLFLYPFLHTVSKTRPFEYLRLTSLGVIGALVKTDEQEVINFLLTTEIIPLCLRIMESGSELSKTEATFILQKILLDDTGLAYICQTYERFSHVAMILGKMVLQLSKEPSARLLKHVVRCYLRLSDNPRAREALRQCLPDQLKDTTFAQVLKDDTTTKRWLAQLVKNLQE
UniProt A8DY81: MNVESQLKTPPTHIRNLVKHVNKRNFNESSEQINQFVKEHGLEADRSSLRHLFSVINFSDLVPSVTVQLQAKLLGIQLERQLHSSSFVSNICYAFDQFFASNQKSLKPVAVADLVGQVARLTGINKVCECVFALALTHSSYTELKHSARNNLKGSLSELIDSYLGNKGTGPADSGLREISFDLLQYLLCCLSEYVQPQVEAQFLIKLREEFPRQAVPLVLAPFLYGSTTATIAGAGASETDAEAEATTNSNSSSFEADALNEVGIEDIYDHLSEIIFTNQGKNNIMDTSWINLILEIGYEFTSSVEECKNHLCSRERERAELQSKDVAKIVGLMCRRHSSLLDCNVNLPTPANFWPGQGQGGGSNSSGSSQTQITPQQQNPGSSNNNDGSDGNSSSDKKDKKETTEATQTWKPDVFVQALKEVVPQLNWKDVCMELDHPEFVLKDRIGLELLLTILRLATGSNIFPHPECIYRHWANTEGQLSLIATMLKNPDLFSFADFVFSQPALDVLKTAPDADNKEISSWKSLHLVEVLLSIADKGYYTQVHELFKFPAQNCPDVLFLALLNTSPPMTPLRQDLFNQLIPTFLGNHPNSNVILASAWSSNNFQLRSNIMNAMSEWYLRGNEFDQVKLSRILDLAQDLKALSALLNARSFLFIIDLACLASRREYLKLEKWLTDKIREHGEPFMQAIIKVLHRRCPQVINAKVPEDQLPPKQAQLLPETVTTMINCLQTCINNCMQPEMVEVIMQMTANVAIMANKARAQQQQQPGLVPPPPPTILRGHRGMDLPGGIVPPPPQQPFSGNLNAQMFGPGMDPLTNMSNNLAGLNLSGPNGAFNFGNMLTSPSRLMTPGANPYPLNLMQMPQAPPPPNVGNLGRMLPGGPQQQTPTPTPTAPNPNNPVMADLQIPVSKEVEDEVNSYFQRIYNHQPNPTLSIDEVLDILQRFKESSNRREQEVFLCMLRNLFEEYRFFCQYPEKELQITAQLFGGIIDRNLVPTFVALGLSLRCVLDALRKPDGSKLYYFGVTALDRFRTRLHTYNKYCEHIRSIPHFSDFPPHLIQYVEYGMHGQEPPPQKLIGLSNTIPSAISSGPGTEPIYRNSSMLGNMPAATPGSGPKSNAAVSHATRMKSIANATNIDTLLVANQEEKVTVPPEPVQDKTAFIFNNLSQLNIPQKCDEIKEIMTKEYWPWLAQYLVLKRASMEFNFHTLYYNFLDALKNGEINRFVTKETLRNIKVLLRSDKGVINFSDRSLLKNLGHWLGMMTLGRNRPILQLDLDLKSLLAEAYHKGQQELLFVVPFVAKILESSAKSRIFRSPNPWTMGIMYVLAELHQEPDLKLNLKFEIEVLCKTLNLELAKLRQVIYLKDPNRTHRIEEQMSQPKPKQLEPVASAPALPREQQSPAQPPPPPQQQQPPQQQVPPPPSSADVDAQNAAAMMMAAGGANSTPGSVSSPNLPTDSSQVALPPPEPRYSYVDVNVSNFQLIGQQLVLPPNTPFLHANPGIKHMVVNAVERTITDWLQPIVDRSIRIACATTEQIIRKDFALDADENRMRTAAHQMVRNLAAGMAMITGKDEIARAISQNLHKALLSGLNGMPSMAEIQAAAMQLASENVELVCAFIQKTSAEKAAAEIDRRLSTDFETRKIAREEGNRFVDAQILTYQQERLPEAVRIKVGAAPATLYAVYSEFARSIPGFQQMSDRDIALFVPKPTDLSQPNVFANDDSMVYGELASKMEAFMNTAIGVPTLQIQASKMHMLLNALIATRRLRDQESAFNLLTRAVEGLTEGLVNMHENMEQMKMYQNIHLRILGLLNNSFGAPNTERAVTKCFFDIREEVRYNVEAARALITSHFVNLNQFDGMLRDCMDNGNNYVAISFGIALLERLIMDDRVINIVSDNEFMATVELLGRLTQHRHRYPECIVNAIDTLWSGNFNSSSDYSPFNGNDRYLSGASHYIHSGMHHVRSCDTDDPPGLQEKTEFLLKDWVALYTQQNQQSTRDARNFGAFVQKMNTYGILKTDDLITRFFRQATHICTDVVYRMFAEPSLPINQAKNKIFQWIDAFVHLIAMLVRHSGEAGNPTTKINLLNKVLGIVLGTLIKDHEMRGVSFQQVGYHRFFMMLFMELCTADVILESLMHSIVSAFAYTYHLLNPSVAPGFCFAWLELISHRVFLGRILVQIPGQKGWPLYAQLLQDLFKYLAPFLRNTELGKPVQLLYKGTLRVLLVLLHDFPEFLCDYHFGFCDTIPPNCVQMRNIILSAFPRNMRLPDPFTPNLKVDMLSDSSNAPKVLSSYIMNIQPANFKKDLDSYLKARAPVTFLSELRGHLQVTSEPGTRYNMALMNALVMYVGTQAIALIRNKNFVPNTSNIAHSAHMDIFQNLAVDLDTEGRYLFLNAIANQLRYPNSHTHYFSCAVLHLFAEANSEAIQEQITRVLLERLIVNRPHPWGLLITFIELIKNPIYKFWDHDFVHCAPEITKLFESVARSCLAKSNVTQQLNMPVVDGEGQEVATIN
UniProt Q9NZN8, residues 350-540: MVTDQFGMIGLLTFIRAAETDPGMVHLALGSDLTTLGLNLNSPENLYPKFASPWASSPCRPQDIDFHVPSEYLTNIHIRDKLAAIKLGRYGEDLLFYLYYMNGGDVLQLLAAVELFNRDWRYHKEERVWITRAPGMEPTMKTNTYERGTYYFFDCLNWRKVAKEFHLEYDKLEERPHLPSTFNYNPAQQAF

How the values were obtained:
[1] = target: MBP-NOT1 (residues 1093–2371) (human) (UniProt A5YKK6); experiment: co-purification of co-expressed proteins; five human proteins co-expressed in E. coli; amylose resin, tag cleavage, HiTrap Heparin, Superdex 200 size exclusion
[2] = target: T1, MBP-tagged Dm Roq-CC (Drosophila melanogaster) (UniProt Q9VV48); experiment: pull-down; in vitro MBP pulldown: purified MBP-tagged Roquin fragments (40 μg) with equimolar purified CCR4-NOT proteins or subcomplexes on amylose resin; 50 mM HEPES-NaOH pH 7.5, 200 mM NaCl, 2 mM DTT; 1 h; maltose elution, SDS-PAGE, Coomassie; both purified
T1 sequence: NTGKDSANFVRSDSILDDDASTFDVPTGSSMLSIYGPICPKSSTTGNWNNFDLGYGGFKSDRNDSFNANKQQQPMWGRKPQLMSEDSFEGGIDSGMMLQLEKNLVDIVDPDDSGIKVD

[3] = target: T2, GFP-tagged Dm Roquin (full-length, wild-type) (Drosophila melanogaster) (UniProt Q9VV48); experiment: co-IP; GFP-tagged Dm Roquin and HA-tagged deadenylase or decapping factors co-expressed in Dm S2 cells; lysates treated with RNase A; anti-GFP and anti-HA blots
T2 sequence: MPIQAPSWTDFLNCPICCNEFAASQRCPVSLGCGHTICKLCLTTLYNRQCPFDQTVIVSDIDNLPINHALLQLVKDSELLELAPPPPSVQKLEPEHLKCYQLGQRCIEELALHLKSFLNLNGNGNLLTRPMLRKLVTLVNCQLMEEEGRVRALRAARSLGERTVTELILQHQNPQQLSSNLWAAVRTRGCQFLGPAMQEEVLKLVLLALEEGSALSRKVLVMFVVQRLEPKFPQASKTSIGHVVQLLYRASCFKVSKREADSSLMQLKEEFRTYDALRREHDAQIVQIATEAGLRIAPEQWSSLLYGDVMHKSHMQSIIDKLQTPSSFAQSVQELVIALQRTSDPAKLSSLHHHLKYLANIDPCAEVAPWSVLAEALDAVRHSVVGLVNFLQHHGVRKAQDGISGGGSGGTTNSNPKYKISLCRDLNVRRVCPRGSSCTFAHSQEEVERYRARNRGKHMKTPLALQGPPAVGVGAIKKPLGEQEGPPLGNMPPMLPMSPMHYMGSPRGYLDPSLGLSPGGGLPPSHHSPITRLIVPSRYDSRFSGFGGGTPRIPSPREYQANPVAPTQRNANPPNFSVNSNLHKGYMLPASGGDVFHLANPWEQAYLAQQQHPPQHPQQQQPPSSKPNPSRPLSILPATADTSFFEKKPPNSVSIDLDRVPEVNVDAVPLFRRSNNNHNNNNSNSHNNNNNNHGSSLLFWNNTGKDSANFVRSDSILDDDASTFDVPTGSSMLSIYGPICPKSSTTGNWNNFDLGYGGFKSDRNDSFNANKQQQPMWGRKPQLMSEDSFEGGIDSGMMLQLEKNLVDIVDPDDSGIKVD

binding [1]: binds
Molecule: 6xHis-NOT3-C (from UniProt O75175 607-748) (domain or fragment)

binding [2]: no binding
Molecule: Hs CAF40 ARM domain Y134D, G141W (from UniProt Q92600 19-285) (domain or fragment)

binding [3]: binds
Molecule: HA-tagged NOT1 (S2 cells) (from UniProt A8DY81 1-2505)

binding [1]: binds
Molecule: MBP-NOT2-C (from UniProt Q9NZN8 350-540) (domain or fragment)

binding [2]: no binding
Molecule: Hs CAF40 ARM domain V181E (from UniProt Q92600 19-285) (domain or fragment)

binding [3]: no binding
B1: HA-tagged Me31B (protein, UniProt P23128 1-459)
chain: MMTEKLNSGHTNLTSKGIINDLQIAGNTSDDMGWKSKLKLPPKDNRFKTTDVTDTRGNEFEEFCLKRELLMGIFEKGWERPSPIQEAAIPIALSGKDVLARAKNGTGKTGAYCIPVLEQIDPTKDYIQALVMVPTRELALQTSQICIELAKHLDIRVMVTTGGTILKDDILRIYQKVQLIIATPGRILDLMDKKVADMSHCRILVLDEADKLLSLDFQGMLDHVILKLPKDPQILLFSATFPLTVKNFMEKHLREPYEINLMEELTLKGVTQYYAFVQERQKVHCLNTLFSKLQINQSIIFCNSTQRVELLAKKITELGYCCYYIHAKMAQAHRNRVFHDFRQGLCRNLVCSDLFTRGIDVQAVNVVINFDFPRMAETYLHRIGRSGRFGHLGIAINLITYEDRFDLHRIEKELGTEIKPIPKVIDPALYVANVGASVGDTCNNSDLNNSANEEGNVSK

binding [3]: binds
B2: HA-tagged PAN3 (S2 cells) (protein, UniProt Q95RR8 1-790)
chain: MCSTYGLLSFEFSDTAAMDPIFFSPTNGIPSESKLATYMNRQNVATPSGYGLNNGFSLLNLDSPLNKKSQVTPQSPEFIPTRLGSTPNFYAPYHNAPMQLSNGLNGVNGLTAAAAAAAAAAAAAAAAVPSSTSSASSASVTISKTANGGASMLALQKTASIASVTIAQQQPQHPQKQQQHPPSVGGGAVSAASAPIAISGAPPNPAAAPFVSSMSAQTPLKGRGAMMRQESPTAAMISGAGPGEKSPPHGMTPHGASPIPSALPTSVHQENVGGTIYFYPTANAQNSQPVVNSMVVDGTHPALHGVSAVAPMSAGVPAAMMYTGHVYPGPSSNVVTMQPKTLLESAFFMPDEMRAEVLARNEISNLIMDAAEAAQHALPLEVENYHALYPLEPPAQPLHAKLTFPATTYRATHNTTGYKYCLRRIHGFRLQSTKCMTLVEMWKKLQHTNVVQLREVFTTKAFGDNSLVLVYDYHPGSQTLLAKYFTPAPETNGYTDPFQGEARPFSHKSNMQRTSNGPLLPEATIWSIIMQLTAGLKAIHHAGLACKVLDPTKIIVTGKRVRFSSCCISDITQFDPNASNPLALVNMHQQDDLTALGRLVLALACRCLQSVQRDNVQSSIDMVTRNYSTDLRNFIVYLFTTNNRRSVTDLMPMIGARFYTQLDALQSKIDMQEDELAKEMENGRLYRILVKLNSINERPDFNLDCTWSETGDRYMLKLFRDYLFHSVTEDGRPWLDHAHIVQCLNKLDAGSIERVQLMSRDEQSVLIVSYAELKNCLENAFSELMSSAAN
